Measured values reported in PubChem BioAssay AID504332 (National Center for Advancing Translational Sciences (NCATS), 2011).
About 31,000 (8.9%) of roughly 350,000 compounds were called active. The shares of active, inactive and inconclusive entries below differ from those in the screen. Calls follow the shape of the dose curve; as a rule, active = well fitted inhibition curve with a large enough effect; inconclusive = small, poorly fitted or top-dose-only effect; inactive = no such curve, though single readings can be large or run the other way. Where the call is inconclusive, the potency comes from a doubtful curve fit.

Biological target: Histone-lysine N-methyltransferase EHMT2 (Homo sapiens) (UniProt Q96KQ7)
Assay: qHTS Assay for Inhibitors of Histone Lysine Methyltransferase G9a; also: nearly all actives have a fitted effect of over 75% in size
Details: G9a H3K9 monomethylation, AlphaScreen, 2 h; activity, negative = inhibition: at 59 µM (top of the series) unless noted
Method in brief: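 Signal arises when biotinylated H3K9 peptide, once monomethylated, bridges streptavidin donor and antibody-captured acceptor beads. Enzyme at 20 nM was preincubated 15 min with test compounds; peptide 500 nM and SAM 20 uM then reacted for 2 h.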
% is scaled to controls: 0 for no effect and ±100 for the full control effect; potency is read from the fitted curve at half-maximal effect; tags tell the direction and shape of the fitted curve.

Sequence of UniProt Q96KQ7 (Q96KQ7 whole entry, looked up): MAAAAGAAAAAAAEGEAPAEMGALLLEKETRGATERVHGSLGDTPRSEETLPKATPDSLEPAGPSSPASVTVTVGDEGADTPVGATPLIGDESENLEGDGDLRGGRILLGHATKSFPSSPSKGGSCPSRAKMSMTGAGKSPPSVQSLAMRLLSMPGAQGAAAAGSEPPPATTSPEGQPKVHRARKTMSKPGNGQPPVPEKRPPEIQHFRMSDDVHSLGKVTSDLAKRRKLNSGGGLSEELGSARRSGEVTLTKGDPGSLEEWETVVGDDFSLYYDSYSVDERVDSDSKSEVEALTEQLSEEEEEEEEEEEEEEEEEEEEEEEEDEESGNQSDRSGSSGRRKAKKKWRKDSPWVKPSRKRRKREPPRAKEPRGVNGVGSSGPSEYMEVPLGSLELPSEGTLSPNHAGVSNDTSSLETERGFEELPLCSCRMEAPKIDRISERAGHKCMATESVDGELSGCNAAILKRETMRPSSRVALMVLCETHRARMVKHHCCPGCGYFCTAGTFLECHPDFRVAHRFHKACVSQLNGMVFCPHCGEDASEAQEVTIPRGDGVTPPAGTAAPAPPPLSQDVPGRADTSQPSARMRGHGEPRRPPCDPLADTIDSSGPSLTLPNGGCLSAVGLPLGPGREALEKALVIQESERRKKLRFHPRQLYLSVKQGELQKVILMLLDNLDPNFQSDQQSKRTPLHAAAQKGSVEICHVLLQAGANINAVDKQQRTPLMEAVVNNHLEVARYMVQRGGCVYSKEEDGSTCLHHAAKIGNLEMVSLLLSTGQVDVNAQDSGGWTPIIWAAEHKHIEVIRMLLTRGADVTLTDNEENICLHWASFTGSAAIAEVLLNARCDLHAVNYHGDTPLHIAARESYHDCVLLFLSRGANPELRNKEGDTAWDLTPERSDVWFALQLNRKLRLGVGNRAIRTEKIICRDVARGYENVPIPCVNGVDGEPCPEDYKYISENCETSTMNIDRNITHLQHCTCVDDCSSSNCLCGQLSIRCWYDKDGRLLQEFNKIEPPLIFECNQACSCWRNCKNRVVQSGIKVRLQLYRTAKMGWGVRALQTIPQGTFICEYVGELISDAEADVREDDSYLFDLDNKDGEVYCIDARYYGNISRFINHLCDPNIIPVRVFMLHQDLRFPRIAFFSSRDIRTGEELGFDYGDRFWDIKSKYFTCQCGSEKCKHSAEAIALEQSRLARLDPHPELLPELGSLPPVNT

| Structure (SMILES) | Potency | activity, negative = inhibition |
| --- | --- | --- |
| Cc1ccccc1-c1nc(-c2ccc(Br)o2)no1 | inconclusive: 89.1 µM [inhibitor, single point] |  |
| COCCn1c(SCC(=O)N2CCCC2=O)nc2sc(C)c(C)c2c1=O | inconclusive: 79.4 µM [inhibitor, single point] |  |
| COc1ccc(OCc2cc(C(=O)N3CCN(C4CCCC4)CC3)no2)c(Cl)c1 | inactive |  |
| CC(=O)N1CCc2c(sc(NC(=O)C3CCN(S(=O)(=O)c4cccs4)CC3)c2C(N)=O)C1 | inconclusive: 89.1 µM [inhibitor, single point] |  |
| C=CCSc1nc(N2CCOCC2)c2c(c1C#N)CC(C)(C)N(C)C2 | inconclusive: 56.2 µM [inhibitor, partial curve] |  |
| Cn1cc([N+](=O)[O-])c(C(=O)Nc2cc(Oc3ccccc3)cc([N+](=O)[O-])c2)n1 | inactive |  |
| CCN1CCN(Cc2ccc(OCc3ccccc3)c(OC)c2)CC1 | inconclusive: 7.08 µM [inhibitor, partial curve] |  |
| CCOC(=O)Nc1ccc(S(=O)(=O)Nc2nccc(C)n2)cc1 | inactive |  |
| COc1ccc(NC(=O)CSc2oc(-c3cccs3)nc2S(=O)(=O)c2ccc(C)cc2)c(OC)c1 | inconclusive: 10 µM [inhibitor, partial curve] |  |
| O=C(NCCCN1CCCCCC1)c1ccc(CS(=O)(=O)Cc2ccccc2F)o1 | inconclusive: 31.6 µM [inhibitor, single point] |  |
| CCN1CCN(C(C)C(=O)Nc2c(C)n(C)n(-c3ccccc3)c2=O)CC1 (stereo unspecified) | active: 11.2 µM |  |
| CCCC(C)C(=O)Nc1cc(S(=O)(=O)N2CCCCC2)ccc1N1CCOCC1 (stereo unspecified) | inactive |  |
| COc1cc(OC)cc(C(=O)Nc2nnc(Cc3ccc(OC)c(OC)c3)s2)c1 | inconclusive: 25.1 µM [inhibitor, single point] |  |
| CCCCS(=O)(=O)c1oc(-c2cccs2)nc1S(=O)(=O)c1ccccc1 | inconclusive: 7.08 µM [inhibitor, partial curve] |  |
| COc1cccc(-n2c(SCC#N)nnc2-c2cnccn2)c1 | inconclusive: 79.4 µM [inhibitor, single point] |  |
| N#Cc1ccc(C2=CC(=O)C[C@H](c3ccc(Cl)cc3)C2)cc1 |  | inactive: -28.8% [at 0.501 µM] |
| CC(C)N(C(=O)CSc1nnc(CN2CCCCCC2=O)n1-c1ccccn1)C(C)C | inconclusive: 1.78 µM [inhibitor, partial curve, poor fit] |  |
| COc1ccc(C2CC(=O)C3=C(C2)NC(C)=C(C#N)C3c2ccc(N(C)C)cc2)cc1 (stereo unspecified) | active: 12.6 µM |  |
| COc1ccc(C(=O)Nc2ccc(-c3ccc(C)o3)cc2)cc1S(=O)(=O)N1CCOCC1 |  | inconclusive: -98% [inhibitor] |
| Cc1ccc(S(=O)(=O)N2CCN(c3ncnc4sccc34)CC2)cc1C | inconclusive: 50.1 µM [inhibitor, partial curve, poor fit] |  |
| COc1cc(NS(=O)(=O)c2ccc(NC(=O)CSC3=NCCS3)cc2)nc(OC)n1 | inconclusive: 50.1 µM [inhibitor, partial curve, poor fit] |  |
| COc1ccccc1CNC(=O)CN1C(=O)COc2ccc(S(=O)(=O)Nc3ccccc3)cc21 | inactive |  |

| Structure (SMILES) | Potency | activity, negative = inhibition |
| --- | --- | --- |
| O=C(c1ccccc1F)c1cc2c(cc1[N+](=O)[O-])OCCO2 |  | inconclusive: -58.6% [inhibitor] |
| CCN(CC)c1ccc(/C=N/NC(=O)C(O)(c2ccccc2)c2ccccc2)o1 | active: 28.2 µM |  |
| COc1cc(/C=C/c2nc(C#N)c(N3CCCCCC3)o2)cc(OC)c1OC | inconclusive: 20 µM [inhibitor, single point] |  |
| O=C(c1ccccc1)c1ccc(OCC(O)CNCc2ccc(Cl)cc2)cc1 (stereo unspecified) | inconclusive: 50.1 µM [inhibitor, partial curve] |  |
| Cc1cccc(/C=C2\CCC(C3CCCC3)C2=O)c1 (stereo unspecified) | inactive |  |
| COc1ccc(OC)c(S(=O)(=O)n2nc(-c3ccccc3)cc2N)c1 | inconclusive: 79.4 µM [inhibitor, partial curve, poor fit] |  |
| O=C(O)c1nn(CC(=O)N2CCN(c3ncc(C(F)(F)F)cc3Cl)CC2)c(=O)c2ccccc12 | inconclusive: 89.1 µM [inhibitor, partial curve, poor fit] |  |
| CN(Cc1ccccc1)C(=O)c1ccc2c(c1)N(Cc1ccccc1F)C(=O)c1ccccc1S2(=O)=O | inactive |  |
| Cc1ccccc1NC(=O)c1nc(S(C)(=O)=O)ncc1Cl | inconclusive: 79.4 µM [inhibitor, single point] |  |
| COc1ccc(OC)c(NC(=O)Cn2cnc3ccc(S(=O)(=O)N4CCC(C)CC4)cc3c2=O)c1 | inactive |  |
| COc1ccc(-c2cc(C(=O)Nc3c(C)nn(Cc4ccc(Cl)cc4)c3C)no2)cc1 | inconclusive: 89.1 µM [inhibitor, partial curve, poor fit] |  |
| CC(C)(C)NC(=O)CSc1nnc(-c2ccncc2)o1 | inactive |  |
| Cc1nn(-c2ccccc2)c(C)c1C(=O)OCC(=O)c1c(N)n(CC(C)C)c(=O)n(C)c1=O | inconclusive: 79.4 µM [inhibitor, single point] |  |
| Cc1c(C(=O)N2CCN(CC(=O)Nc3ccccc3Cl)CC2)oc2ccc(Br)cc12 |  | inactive: 4.22% [at 2.33 µM] |
| CCn1cnc2sc(C(=O)N(Cc3ccc(N(C)C)cc3)Cc3ccco3)c(C)c2c1=O | active: 15.8 µM |  |
| C/C(=N\Nc1nc2ccccc2c(=O)n1O)c1ccco1 | active: 79.4 µM |  |
| Cc1ccc(-c2nc3sc(CCNS(=O)(=O)c4cc(F)ccc4F)c(C)n3n2)cc1 | inactive |  |
| Cc1ccccc1OCc1nnc(SCC(=O)O)n1-c1ccccc1 |  | inactive: 8.6% [at 0.501 µM] |
| CCOc1ccc(C(=O)NCC(=O)NCCCSc2ccccc2)cc1OCC | inconclusive: 22.4 µM [inhibitor, partial curve, poor fit] |  |
| COc1cccc(NS(=O)(=O)c2ccc3c(c2)C2C=CCC2C(c2ccc(C(=O)O)cc2)N3)c1 (stereo unspecified) | active: 7.94 µM |  |
| CCN(CC)S(=O)(=O)c1ccc2oc(C(=O)NCc3ccc(C)cc3)c(C)c2c1 |  | inconclusive: -65.5% [inhibitor] |
| COc1ccc(Cl)cc1NS(=O)(=O)c1ccc2[nH]c3c(c2c1)CCCC3 | inconclusive: 15.8 µM [inhibitor, partial curve] |  |

| Structure (SMILES) | Potency | activity, negative = inhibition |
| --- | --- | --- |
| Fc1ccccc1-c1ccc(/C=N/Nc2nc3ccccc3[nH]2)o1 | inconclusive: 3.16 µM [inhibitor, single point] |  |
| Cn1cccc1C(=O)NC(=O)COC(=O)CNS(=O)(=O)c1ccc(Br)cc1 | inconclusive: 39.8 µM [inhibitor, single point] |  |
| COc1ccc(/C(O)=C2/C(=O)C(=O)N(CCCN(C)C)C2c2cccnc2)cc1 (stereo unspecified) | inconclusive: 79.4 µM [inhibitor, partial curve, poor fit] |  |
| Cc1ccc(C)n1-c1ccc(-c2ccn[nH]2)cc1 | inconclusive: 39.8 µM [inhibitor, full curve] |  |
| N/C(=N\OC(=O)CCCc1ccccc1)c1ccccn1 | inactive |  |
| O=C(O)c1ccc(N2C(=O)Nc3ccccc3N2O)cc1 | inconclusive: 44.7 µM [inhibitor, partial curve, poor fit] |  |
| O=C(Nc1ccccc1N1CCN(c2ccc(F)cc2)CC1)c1ccccc1 | inconclusive: 0.316 µM [inhibitor, full curve, poor fit] |  |
| C=CCn1c(SCc2ccc(Cl)cc2)nc2c1c(=O)[nH]c(=O)n2C | inconclusive: 89.1 µM [inhibitor, single point] |  |
| CCOC(=O)CNC(=O)CSc1nnc(NC(=O)c2ccc(C)cc2)s1 | inactive |  |
| O=C(Nc1c2c(nn1-c1cccc(Cl)c1)CS(=O)(=O)C2)c1ccc2c(c1)OCO2 | inconclusive: 89.1 µM [inhibitor, single point] |  |
| COc1ccc(/C=C2/C(=O)N(c3ccccc3)N=C2C)c(OC)c1 | active: 20 µM |  |
| COCCn1c(SCC(=O)Nc2ccc(C)cc2)nc2c(oc3ccccc32)c1=O | inactive |  |
| COc1ccc(CC(=O)Oc2ccc(F)c(F)c2)cc1S(=O)(=O)N1CCOCC1 | inconclusive: 56.2 µM [inhibitor, partial curve, poor fit] |  |
| COc1ccc(N2CCOCC2)c(NC(=O)c2ccc3c(c2)OCO3)c1 | inactive |  |
| CC(C)c1ccccc1NC(=O)COC(=O)CCN1C(=O)/C(=C\C=C\c2ccccc2)SC1=S | inconclusive: 8.91 µM [inhibitor, full curve, poor fit] |  |
| CC(=O)NC1[C@H]([C@H](O)[C@H](O)CO)OC(C(=O)O)=C[C@H]1N=C(N)N (stereo partly specified) | inactive |  |
| CCOC(=O)c1[nH]c(C)c(CCC(=O)NCc2ccc(N(C)C)cc2)c1C | inconclusive: 12.6 µM [inhibitor, partial curve, poor fit] |  |
| COc1ccc(S(=O)(=O)N(Cc2cc3cc(C)ccc3[nH]c2=O)CC2CCCO2)cc1 (stereo unspecified) | inconclusive: 89.1 µM [inhibitor, partial curve, poor fit] |  |
| CC(=O)Nc1ccc(S(=O)(=O)N2CCN(C3CCCCCCC3)CC2)cc1 | inactive |  |
| COc1cccc(OCc2cc(C(=O)N(C)Cc3nc(C)cs3)no2)c1 | inconclusive: 25.1 µM [inhibitor, partial curve, poor fit] |  |
| CC(=O)c1ccc(OCC(=O)N2CCN(S(=O)(=O)c3ccc(Br)s3)CC2)cc1 | inconclusive: 50.1 µM [inhibitor, partial curve] |  |
| COc1cccc(NC(=O)COC(=O)Cn2c(C)csc2=O)c1 | inconclusive: 22.4 µM [inhibitor, single point] |  |
